Laboratory results from PubChem BioAssay AID1460 (National Center for Advancing Translational Sciences (NCATS), 2008).
Out of some 270,000 compounds screened, about 5,800 (2.1%) were called active. This list was built around the results that the source calls inconclusive (neither active nor inactive); the mix of calls is not that of the screen. The call rests on the fitted dose curve; in most records, active means well fitted inhibition curve with a large enough effect; inconclusive means small, poorly fitted or top-dose-only effect; inactive means flat fitted curve, though single readings scatter. A potency beside an inconclusive call is a rough fit, not a confirmed value.

What follows are molecules tested against Microtubule-associated protein tau (Homo sapiens) (UniProt P10636) (assay: qHTS for Inhibitors of Tau Fibril Formation, Thioflavin T Binding). Settings: recombinant tau K18 P301L (four-repeat tau fragment), heparin-induced fibrillization, ThT fluorescence; series mostly up to 57.4 µM; activity, negative = inhibition: at the top concentration.
In short: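 Recombinant human tau K18 fragment […] carrying P301L, 15 uM unlabeled plus 0.24 uM Alexa 594-labeled, was fibrillized with 20 uM heparin in 100 mM sodium acetate pH 7 for 6 hr at 37 C; 30 uM ThT fluorescence read after 1 hr.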
Further: nearly all actives have a fitted effect of over 55% in size.
On the % scale 0 is the no-effect control and ±100 the full control effect; potency means the concentration at half of the fitted maximal effect; tags describe the fitted curve by direction and shape.

Chain of UniProt P10636 (P10636 whole entry, looked up, the tested form may be a part): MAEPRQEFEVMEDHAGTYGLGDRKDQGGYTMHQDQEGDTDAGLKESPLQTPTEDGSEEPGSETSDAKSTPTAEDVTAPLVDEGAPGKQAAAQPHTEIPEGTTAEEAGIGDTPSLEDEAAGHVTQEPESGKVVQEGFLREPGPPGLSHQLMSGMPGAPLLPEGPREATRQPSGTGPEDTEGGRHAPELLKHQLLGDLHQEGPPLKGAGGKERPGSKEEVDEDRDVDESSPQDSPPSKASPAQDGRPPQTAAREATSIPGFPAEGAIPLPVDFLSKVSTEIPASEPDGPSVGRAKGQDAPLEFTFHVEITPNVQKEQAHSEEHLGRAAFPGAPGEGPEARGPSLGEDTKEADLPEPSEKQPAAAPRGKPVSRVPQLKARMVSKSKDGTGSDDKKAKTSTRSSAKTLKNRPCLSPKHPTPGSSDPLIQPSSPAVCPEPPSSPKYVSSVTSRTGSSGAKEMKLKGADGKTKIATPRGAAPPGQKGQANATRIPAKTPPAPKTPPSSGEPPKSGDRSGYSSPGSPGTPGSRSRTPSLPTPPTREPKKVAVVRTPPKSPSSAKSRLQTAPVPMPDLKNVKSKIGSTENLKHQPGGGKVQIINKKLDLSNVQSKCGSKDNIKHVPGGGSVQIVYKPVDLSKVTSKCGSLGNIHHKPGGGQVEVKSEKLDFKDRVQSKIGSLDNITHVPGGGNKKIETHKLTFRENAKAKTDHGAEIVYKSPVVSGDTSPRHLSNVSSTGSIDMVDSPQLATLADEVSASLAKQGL

Compound | Potency | activity, negative = inhibition
COC(=O)Oc1ccc(/C=N/NC(=O)CSCc2ccccc2Br)cc1OC | inconclusive: 22.4 µM [inhibitor, partial curve, poor fit] | –
CCc1ccc(OCC(=O)N(C)CCC#N)c(Br)c1 | – | inactive: -6.26%
COc1ccc(OC)c(Nc2ncnc3c2cnn3-c2ccc(C)cc2)c1 | inconclusive: 7.94 µM [inhibitor, partial curve] | –
COc1ccc(CC2(C)OC(c3ccc(Cl)cc3)=NN2C(C)=O)cc1 (centres undefined) | inconclusive: 35.5 µM [inhibitor, single point] | –
Cc1cc(C)n(-c2ccc(C(=O)Nc3ccc(N4CCOCC4)cc3)cc2)n1 | inconclusive: 2.51 µM [inhibitor, full curve] | –
COc1ccc(-c2noc(CN3CCN(c4cccc(Cl)c4)CC3)n2)cc1 | inconclusive: 3.16 µM [inhibitor, full curve] | –
O=C(N/N=C/c1cccc2cccnc12)c1ccccc1O | inconclusive: 11.2 µM [inhibitor, partial curve] | –
N#Cc1c(-c2ccccc2)nc(-c2ccccc2)[nH]c1=O | – | inactive: 7.79%
CCC(C)NC(=O)Cn1c(=O)n(Cc2ccc(C(=O)NCc3ccccc3OC)cc2)c(=O)c2ccccc21 (centres undefined) | – | inactive: 4.71%
Cc1nn(C(=O)c2cccc(F)c2)c(C)c1S(=O)(=O)N1CCCCCC1 | inconclusive: 4.47 µM [inhibitor, partial curve] | –
COc1ccccc1[C@@H]1C(c2ccc(F)cc2)=NN(c2ccc(Br)cc2)[C@H]1C(=O)N1CCOC1=O | inconclusive: 7.08 µM [inhibitor, single point] | –
CCOC(=O)c1[nH]c(C)c(CCC(=O)NCc2ccccc2C)c1C | – | inactive: 4.91%
O=C(O)C1=C[C@H](c2ccc(F)cc2)C[C@H](OCCCCO)O1 | – | inactive: -5.91%
Cn1nc(-c2ccccc2F)c2cc(C(=O)N3CCN(c4ccc(F)cc4)CC3)sc21 | inconclusive: 0.708 µM [inhibitor, full curve, poor fit] | –
Cc1cc(N/N=C/c2ccc(Cl)cc2)nc(NCc2ccccc2)n1 | inconclusive: 20 µM [inhibitor, single point] | –
CCCc1cc(C(=O)Nc2cccc(Cl)c2)no1 | inconclusive: 15.8 µM [inhibitor, partial curve] | –
COCCN(C(=S)Nc1c(C)cc(C)cc1C)C(C)c1cccs1 (centres undefined) | – | inactive: -14.3%
COc1ccc(C[C@H]2CN3C(=NC[C@H]3Cc3ccccc3)N2CCNC(=O)CCC2CCCCC2)cc1 | inconclusive: 11.2 µM [inhibitor, single point] | –
COc1ccc(CN2C(=O)/C(=C/c3ccc(-c4ccc(Cl)c(C(=O)O)c4)o3)SC2=S)cc1 | inconclusive: 11.2 µM [inhibitor, partial curve] | –
COc1cc(CC(=O)N/N=C/c2ccc([N+](=O)[O-])cc2)c([N+](=O)[O-])cc1OC | inconclusive: 28.2 µM [inhibitor, partial curve] | –
Cc1ccc2cc(C(c3nnnn3CC3CCCO3)N3CCc4ccccc4C3)c(=O)[nH]c2c1 (centres undefined) | – | inactive: -17.8%
CCN(CC)c1ccc(NC(=O)c2cc(S(=O)(=O)N3CCc4ccccc43)cn2C)c(C)c1 | – | inactive: -7.5%

Compound | Potency | activity, negative = inhibition
O=S(=O)(Nc1ccc(N=Nc2ccccc2)cc1)c1ccccc1 | active: 15.8 µM | –
FC(F)(F)c1cnc(NNC(=S)Nc2ccc(Cl)cc2)c(Cl)c1 | inconclusive: 28.2 µM [inhibitor, single point] | –
CC(=O)NCCn1c(SCC(=O)c2ccccc2)nc2ccccc2c1=O | inconclusive: 3.98 µM [inhibitor, full curve, poor fit] | –
CCc1c(C)nc(SCC(=O)c2cccs2)c(C#N)c1C | inconclusive: 2.82 µM [inhibitor, full curve] | –
Cc1ccccc1OCC(=O)N(Cc1ccc(N(C)C)cc1)CC1CCCO1 (centres undefined) | – | inactive: -8.45%
CCN1C(=O)c2cccc3c(N)ccc1c23 | inconclusive: 28.2 µM [inhibitor, single point] | –
O=c1[nH]c2ccccc2n1CCCSc1cnc2ccccc2n1 | inconclusive: 39.8 µM [inhibitor, single point] | –
COCCn1c(C)cc(O)c(C(c2ccc(C)cc2)N2CCCCC2)c1=O (centres undefined) | inconclusive: 25.1 µM [inhibitor, single point] | –
C#CC(C)(CC)NC(=O)c1cc2c(n(-c3ccc(Cl)cc3)c1=O)CC(C)(C)CC2=O (centres undefined) | – | inactive: -4.03%
COc1ccc(OC(=O)c2cnn(-c3ccccc3)c2C)cc1 | inconclusive: 14.1 µM [inhibitor, partial curve] | –
O=C(CCNC(=O)c1ccccc1)OCC(=O)c1cccc(Cl)c1 | inconclusive: 5.62 µM [inhibitor, partial curve, poor fit] | –
Cc1ccc(/C=C/C(=O)N2CCCC(C)C2)cc1 (centres undefined) | – | inactive: -14.5%
CC1(C)Cc2c(sc(NC(=S)NC(=O)c3ccccc3)c2C(=O)O)CO1 | inconclusive: 10 µM [inhibitor, partial curve] | –
COc1ccc(-c2cc(C(=O)Nc3ccc4c(c3)OCO4)no2)cc1OC | inconclusive: 1.58 µM [inhibitor, full curve] | –
COc1ccc(CNc2nc(-c3ccco3)nn2C(=O)c2ccccc2Cl)cc1 | – | inactive: -2.78%
Cc1ccc(C)c(SCc2nc3sc(C(=O)O)c(C)c3c(=O)[nH]2)c1 | inconclusive: 5.62 µM [activator, single point] | –
O=C(O)c1ccc(N/N=C/c2ccc(OC(=O)c3cccc(Cl)c3)cc2)cc1 | active: 12.6 µM | –
C[C@H](Cc1ccc(O)c(O)c1)[C@@H](C)Cc1ccc(O)c(O)c1 | – | inactive: 0.76%
Cc1nc2sccn2c(=O)c1S(=O)(=O)NCc1ccc(F)cc1 | – | inactive: -6.92%
C=CCn1c(SCC(=O)Nc2sccc2C(N)=O)nc2sc(C)c(C)c2c1=O | inconclusive: 28.2 µM [inhibitor, single point] | –
O=C(C1=C[C@@H]2[C@H]3C(=O)N(c4ccc(Cl)cc4)C(=O)[C@H]3[C@@H](C(=O)c3ccc(Cl)cc3)N2C=C1)c1ccccc1 | active: 14.1 µM | –
CCSc1nnc(NC(=O)CSc2nnc(-c3c[nH]c4ccccc34)n2C)s1 | inconclusive: 10 µM [inhibitor, partial curve] | –
